# Data from the supplement of paper PMC10600219.
# Counter-ions that a name gives are not always drawn. In all, about 2,800 compounds were measured (“cell viability relative to vehicle”: median about 1.1, lowest 2% from about 0.19 on). The list shows a part of the results.
# Tested on: NCI-H2228 parental
# Experiment: cell viability relative to vehicle (fraction of vehicle); NCI-H2228 is an ALK-positive lung cancer line and DTP means drug-tolerant persister; higher = less growth inhibition
# Conditions: 100 nM; treatment time 6 days
# Method in brief: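 The 3114-agent TargetMol anti-cancer compound library was tested at 100 nM for 6 days on parental NCI-H2228 cells and on persister cells derived with 1000 nM of a targeted drug for 13 days. ATP readout by the CellTiter-Glo 3D Cell Viability Assay gave cell viability relative to DMSO vehicle-treated cells.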
row,Compound,cell viability
1,O=C(O)CNC(=O)c1c(O)c2ccccc2n(Cc2ccccc2)c1=O,1.1
2,CC(CCc1ccccc1)NC(C)C(O)c1ccc(O)cc1 (configuration not stated) [Nylidrin hydrochloride],0.957
3,C[C@]12CC[C@H](O)C[C@H]1CC[C@@H]1[C@@H]2CC[C@]2(C)[C@@](O)(c3ccoc3)CC[C@]12O [Rostafuroxin],1.03
4,COc1ccc(/C=C/C=C2C(=O)NC(=O)NC2=O)cc1,1.17
5,C[N+](C)(C)CCCCCCCCCC[N+](C)(C)C [Decamethonium bromide],1.05
6,c1cnc(N2CCNCC2)nc1 [2-(1-Piperazinyl)pyrimidine],1.25
7,C[C@H]1CCC2N(C1)C[C@H]1C3CC4[C@@H](CC(=O)C5C[C@@H](O)CC[C@@]54C)C3CCC1[C@]2(C)O (some centres not stated) [Peiminine],1.12
8,CCc1c2c(nc3ccccc13)-c1cc3c(c(=O)n1C2)COC(=O)[C@]3(O)CC [7-Ethylcamptothecin],0.054
9,CCNC(=O)C[C@@H]1N=C(c2ccc(Cl)cc2)c2cc(OC)ccc2-n2c(C)nnc21 [Molibresib],1.07
10,CC(C)=CCC[C@]1(C)C=Cc2c(O)c3c(c(CC=C(C)C)c2O1)O[C@]12C(=C[C@@H]4C[C@H]1C(C)(C)O[C@@]2(C/C=C(/C)C(=O)O)C4=O)C3=O [Gambogic Acid],1.06
11,CN1c2ccccc2C(NCCCCCCC(=O)O)c2ccc(Cl)cc2S1(=O)=O (configuration not stated) [Tianeptine sodium],0.989
12,COC(=O)Nc1nc2ccccc2[nH]1 [Carbendazim],1.18
13,O=C/C=C/c1ccccc1 [Cinnamaldehyde],1.06
14,N#Cc1nn(-c2c(Cl)cc(C(F)(F)F)cc2Cl)c(N)c1[S+]([O-])C(F)(F)F (configuration not stated) [Fipronil],1.11
15,CC[C@@]1(O)C(=O)OCc2c1cc1n(c2=O)Cc2cc3ccccc3nc2-1 [(S)-(+)-Camptothecin],0.0882
16,COc1cc2c3c(c1OC)-c1ccccc1C[C@H]3N(C)CC2 [Nuciferine],0.985
17,O=P(O)(NCCCl)NCCCl [Palifosfamide],1.06
18,c1c2c(cc3c1OCO3)-c1cc3ccc4c(c3c[n+]1CC2)OCO4 [Coptisine chloride],0.97
19,c1c2c(cc3c1OCO3)-c1cc3ccc4c(c3c[n+]1CC2)OCO4 [Coptisine],1.06
20,C[C@H]1CCC/C=C/[C@@H]2C[C@H](O)C[C@H]2[C@H](O)/C=C/C(=O)O1 [Brefeldin A],0.0967
21,CCC12C=CCN3CC[C@@]4(c5ccc(OC)cc5N(C)[C@H]4[C@@](O)(C(=O)OC)[C@@H]1OC(C)=O)[C@@H]32 (some centres not stated) [Vindoline],1.06
22,O=C(CBr)c1ccc(O)cc1 [PTP Inhibitor I],1.01
23,Cc1ncc(CNC(=O)N(CCCl)N=O)c(N)n1 [Nimustine Hydrochloride],1.05
24,COC(=O)[C@]1(C)CC[C@]2(C)CC[C@]3(C)C4=CC=C5C(=CC(=O)C(O)=C5C)[C@]4(C)CC[C@@]3(C)[C@@H]2C1 [Pristimerin],1.03
25,CC1=C(O)C(=O)C=C2C1=CC=C1[C@@]2(C)CC[C@@]2(C)[C@@H]3C[C@](C)(C(=O)O)CC[C@]3(C)CC[C@]12C [Celastrol],1.03
26,COc1cc(-n2c(=S)[nH]c3ccccc3c2=O)c(Cl)cc1Cl [Mdivi 1],1.08

row,Compound,cell viability
1,N.N.[Cl][Pt][Cl] [Cisplatin],1.24
2,COc1ccc(C(=O)N2CCCC2=O)cc1 [Aniracetam],1.08
3,O=C(O)CCCCCCCCCO [10-Hydroxydecanoic Acid],1.17
4,O=C(O[C@H]1C[C@H]2CC[C@@H](C1)[N+]21CCCC1)C(O)(c1ccccc1)c1ccccc1 [Trospium chloride],1.24
5,O=C(O)CCCc1ccc(N(CCCl)CCCl)cc1 [Chloroambucil],1
6,COc1ccc(-n2nc(C(F)(F)F)cc2-c2ccc(Cl)cc2)cc1,1.12
7,C[C@]12CCC(=O)C=C1CC[C@@H]1[C@@H]2C(=O)C[C@]2(C)C(=O)CC[C@@H]12 [Adrenosterone],1.16
8,NC(=O)CN1CC(O)CC1=O (configuration not stated) [Oxiracetam],1
9,Cc1c(C(=O)Nc2cccc(C(F)(F)F)c2)cc(-c2ccccc2)n1CCCN1CCOCC1,0.941
10,CC(C)=CCC[C@H](C(=O)O)[C@H]1CC[C@]2(C)C3=C(CC[C@@]12C)[C@@]1(C)CCC(=O)C(C)(C)[C@H]1CC3 [β-Elemonic Acid],1.07
11,Clc1ccc([C@]23CNC[C@H]2C3)cc1Cl [Amitifadine hydrochloride],1.25
12,CN1CCC(c2c[nH]c3ccc(O)cc23)CC1,1.06
13,C1=C2CCCN[C@H]2[C@@H]2C[C@H]1[C@H]1CCCCN1C2 [Aloperine],0.944
14,COc1cc([C@@H]2c3cc4c(cc3[C@H](O)[C@H]3COC(=O)[C@@H]23)OCO4)cc(OC)c1OC [Picropodophyllin],0.795
15,C/C(=C\c1csc(C)n1)[C@@H]1C[C@@H]2O[C@]2(C)CCC[C@H](C)[C@H](O)[C@@H](C)C(=O)C(C)(C)[C@@H](O)CC(=O)O1 [Epothilone B],0.141
16,C=C[C@H]1CN2CC[C@H]1C[C@@H]2[C@@H](O)c1ccnc2ccccc12 [Cinchonine],1.14
17,C1CCc2nnnn2CC1 [Pentetrazol],1.21
18,C/C=C/c1cc(OC)c(OC)cc1OC [alpha-Asarone],0.991
19,C=CC[C@]1(O)CC[C@H]2[C@@H]3CCC4=CC(=O)CCC4=C3C=C[C@@]21C [Altrenogest],1.25
20,COCC1(CO)C(=O)C2CCN1CC2 (configuration not stated),1.04
21,Cc1ccccc1-n1c(Cn2cnc3c(N)ncnc32)nc2cccc(C)c2c1=O,1.11
22,C=CCN1CC[C@]23c4c5ccc(O)c4O[C@H]2[C@@H](OCCOCCOCCOCCOCCOCCOCCOC)CC[C@@]3(O)[C@H]1C5 [Naloxegol oxalate],1.03
23,COC[C@H]1OC(=O)c2coc3c2[C@@]1(C)C1=C(C3=O)[C@@H]2CCC(=O)[C@@]2(C)C[C@H]1OC(C)=O [Wortmannin],1.03
24,CC1(C)CC(O)CC(C)(C)N1[O] [Tempol],1.12
25,O=S(=O)(CC1CS1)c1ccc(Oc2ccccc2)cc1 (configuration not stated),1.04
26,CN1[C@@H]2CC(O)C[C@H]1[C@@H]1O[C@@H]12 (some centres not stated) [Scopine],1.06

row,Compound,cell viability
1,NCCCNCCCN [Bis(3-aminopropyl)amine],0.96
2,C#C[C@]1(O)CC[C@H]2[C@@H]3CCC4=CC(=O)CC[C@]4(C)[C@H]3CC[C@@]21C [Ethisterone],1.13
3,CC(=O)OC(C)(C)/C=C/C(=O)[C@](C)(O)[C@H]1[C@H](O)C[C@@]2(C)[C@@H]3CC=C4[C@H](C[C@H](O)C(=O)C4(C)C)[C@]3(C)C(=O)C[C@]12C [Cucurbitacin B],0.223
4,CC(C)(C)c1cc(C(C)(C)C)c2c(c1)C(O)(C(F)(F)F)C(=O)O2 (racemic),1.06
5,CC[C@H]1CN2CC[C@H]1C[C@@H]2[C@@H](O)c1ccnc2ccc(OC)cc12 [Hydroquinidine],0.984
6,O=C(N[C@H]1CN2CCC1CC2)c1ccc(Cl)cc1,0.943
7,C=CC[C@]1(O)CC[C@H]2[C@@H]3CCC4=CCCC[C@@H]4[C@H]3CC[C@@]21C [Allylestrenol],1.22
8,NCC(CC(=O)O)c1ccccc1 (configuration not stated) [Phenibut],1.09
9,COc1ccc(/C=C/c2cc(OC)cc(OC)c2)cc1 [Trimethoxystilbene],1.05
10,C[C@]12CC[C@H](O)C[C@H]1CC[C@@H]1[C@@H]2CC[C@]2(C)[C@@H](c3ccc(=O)oc3)CC[C@]12O [Bufalin],0.423
11,CN1[C@@H]2CC[C@H]1C[C@@H](OC(=O)[C@H](CO)c1ccccc1)C2 [L-Hyoscyamine],1.25
12,CCC(C)C(=O)O[C@@H]1[C@@H](OC(C)=O)[C@]2(C)[C@H](C(C)=O)CC[C@@]23O[C@]32CC[C@H]3C[C@@H](O[C@H]4C[C@@H](OC)[C@H](O[C@@H]5O[C@H](C)[C@@H](O)[C@@H](OC)[C@H]5O)[C@@H](C)O4)CC[C@]3(C)[C@@H]12 (some centres not stated) [Tenacissoside H],1.11
13,NCCc1ccc(S(=O)(=O)F)cc1 [AEBSF hydrochloride],1.13
14,CC(C)=CCOc1c2occc2cc2ccc(=O)oc12 [Imperatorin],0.977
15,N[C@@H](Cc1ccc(N(CCCl)CCCl)cc1)C(=O)O [Melphalan],1.15
16,C[C@@]12C[C@@H](c3ccoc3)OC(=O)[C@@H]1CC[C@]1(C)[C@H]2[C@@H]2C=C[C@@]1(O)C(=O)O2 [Columbin],1.06
17,CCO[C@H]1O[C@@H]2O[C@@]3(C)CC[C@H]4[C@H](C)CC[C@@H]([C@H]1C)[C@@]24OO3 [Arteether],1.06
18,CC(C)N(CCC(C(N)=O)(c1ccccc1)c1ccccn1)C(C)C (configuration not stated) [Disopyramide],0.956
19,C/C=C(\C)C(=O)N[C@@H](c1ccccc1)[C@@H](O)C(=O)O[C@H]1C[C@@]2(O)[C@@H](OC(=O)c3ccccc3)[C@@H]3[C@]4(OC(C)=O)CO[C@@H]4C[C@H](O)[C@@]3(C)C(=O)[C@H](OC(C)=O)C(=C1C)C2(C)C [Cephalomannine],0.129
20,CN(C)NC(=O)CCC(=O)O [Daminozide],1.1
21,NCCc1c[nH]c2ccc(O)cc12 [Serotonin hydrochloride],1.06
22,COc1ccc2c(c1)[nH]c1c(C)nccc12 [Harmine],1.07
23,COc1ccc2c(c1)/C(=C/c1cnc[nH]1)C(=O)N2,1
24,COc1ccc(C[C@H]2NC[C@H](O)[C@H]2OC(C)=O)cc1 [Anisomycin],0.376
25,COc1cc([C@@H]2c3cc4c(cc3[C@H](O)[C@H]3COC(=O)[C@H]23)OCO4)cc(OC)c1OC [Podophyllotoxin],0.279
